{"source": "paper PMC10259393", "about": "“The structural basis of the multi-step allosteric activation of Aurora B kinase” (eLife, 2023)", "binders": {"B1": {"name": "Aurora B ([…] aa) from X. laevis, phosphorylated at Thr248, as in [Aurora B/IN-box]^all-P (domain or fragment)", "chain": "not shown", "modifications": "phosphothreonine at 248"}}, "molecular_target": "IN-box^Arg847Ala, point mutant in the context of the [Aurora B/IN-box] complex (X. laevis, UniProt O13024 790-856, IN-box^Arg847Ala)", "assay": "cell-based or functional assay"}
{"binder": "B1", "values": [{"measurement": "kcat (s^–1) of [Aurora B/IN-box^Arg847Ala], pyruvate kinase/lactate dehydrogenase-coupled kinase assay", "value": 16, "unit": "s^–1"}, {"measurement": "kcat/KM (M^–1 s^–1) of [Aurora B/IN-box^Arg847Ala], pyruvate kinase/lactate dehydrogenase-coupled kinase assay", "value": 19000, "unit": "M^–1 s^–1"}]}
